# Laboratory results: paper PMC4336329 (PLoS ONE, 2015)
# The whole screen tested about 310,000 compounds, of which about 2,200 (0.71%) showed an effect of 50% or more. The effect is printed as a negative number. The list shows a part of the results.
# Target: human ether-à-go-go-related gene (hERG) potassium channel (human, UniProt Q12809)
# Test: primary screen, population patch clamp on CHO cells stably expressing hERG
# Sequence of human ether-à-go-go-related gene (hERG) potassium channel (Q12809 whole entry, looked up): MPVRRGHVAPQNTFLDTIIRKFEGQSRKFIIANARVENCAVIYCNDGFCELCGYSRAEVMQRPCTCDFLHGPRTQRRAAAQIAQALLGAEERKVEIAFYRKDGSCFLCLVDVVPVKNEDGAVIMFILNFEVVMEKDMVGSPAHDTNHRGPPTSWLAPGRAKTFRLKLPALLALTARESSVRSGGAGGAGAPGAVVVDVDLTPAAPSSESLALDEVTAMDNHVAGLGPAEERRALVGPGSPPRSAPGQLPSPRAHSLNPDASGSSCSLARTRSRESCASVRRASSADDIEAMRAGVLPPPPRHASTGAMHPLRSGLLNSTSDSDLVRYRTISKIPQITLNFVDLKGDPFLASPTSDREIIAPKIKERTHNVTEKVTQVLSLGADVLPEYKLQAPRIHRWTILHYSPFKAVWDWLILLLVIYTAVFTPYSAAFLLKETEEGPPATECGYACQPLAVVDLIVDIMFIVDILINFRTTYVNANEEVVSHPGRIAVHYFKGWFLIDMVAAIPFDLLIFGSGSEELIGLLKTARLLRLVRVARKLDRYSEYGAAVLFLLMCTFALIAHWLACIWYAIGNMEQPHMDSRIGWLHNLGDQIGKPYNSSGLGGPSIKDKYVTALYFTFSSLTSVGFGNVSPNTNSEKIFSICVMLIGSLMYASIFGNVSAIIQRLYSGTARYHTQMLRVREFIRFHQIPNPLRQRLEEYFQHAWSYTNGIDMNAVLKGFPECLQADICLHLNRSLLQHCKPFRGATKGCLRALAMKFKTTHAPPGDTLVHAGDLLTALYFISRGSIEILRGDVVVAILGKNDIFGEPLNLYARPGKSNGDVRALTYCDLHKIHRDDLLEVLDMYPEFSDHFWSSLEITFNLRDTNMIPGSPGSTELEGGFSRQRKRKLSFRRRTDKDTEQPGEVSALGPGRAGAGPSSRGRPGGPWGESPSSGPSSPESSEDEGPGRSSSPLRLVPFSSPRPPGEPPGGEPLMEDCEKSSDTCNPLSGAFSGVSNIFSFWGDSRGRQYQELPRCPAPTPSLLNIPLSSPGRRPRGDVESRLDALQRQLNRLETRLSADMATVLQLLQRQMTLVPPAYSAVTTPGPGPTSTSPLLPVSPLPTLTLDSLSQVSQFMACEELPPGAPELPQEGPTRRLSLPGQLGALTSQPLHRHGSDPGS
row,Compound,"hERG current change (%, negative = inhibition) at 1uM [%]"
1,CCN1C(=O)N(C)[C@@H](c2ccccc2)C(C(C)=O)=C1C,22.1
2,N/C(=N\NS(=O)(=O)c1ccccc1Cl)c1ccccn1,14.6
3,COCCn1c(=O)[nH]c2cc(C(=O)NCCN3CCN(c4ccc(OC)cc4)CC3)ccc2c1=O,11.4
4,COc1ccc(C2C(C(=O)NC(C)C)c3ccccc3C(=O)N2C)cc1OC (centres unmarked),8.64
5,COc1ccc(S(=O)(=O)N2CCN(C(=O)c3oc4ccccc4c3C)CC2)cc1,14.4
6,COc1ccc(OCC(O)CN(C)C(=O)C(C)Oc2ccccc2)cc1 (centres unmarked),13.2
7,CCCN1CCN(C(=O)c2oc3ccccc3c2NC(=O)COc2ccc(OC)cc2)CC1,-46.3
8,Cc1nnc2c(NCCc3ccccc3)nc3ccccc3n12,10.1
9,CC(=O)C[C@H](O)CC(=O)[C@@H]1OC(=O)CCCCCCc2ccccc21,9.69
10,CC(CCC(=O)O)C1CC[C@H]2C3CCC4CC(=O)CCC4(C)[C@H]3CC(=O)C12C (some centres unmarked),1.89
11,Cc1ccc(C)c(SCC(=O)OCC(=O)N2CC(C)OC(C)C2)c1 (centres unmarked),-0.0748
12,CCCCN(CC)Cc1ccc(CNC(=S)Nc2c(C)cc(C)cc2C)o1,-9.61
13,O=C(c1ccc(Br)cc1)N(Cc1ccco1)C1CCS(=O)(=O)C1 (centres unmarked),11.2
14,O=C(CN1CCN(C(=O)c2c(F)cccc2F)CC1)Nc1ccccc1F,0.0409
15,O=C(Nc1ccc2c(c1)OCCO2)c1cnccn1,-5.98
16,COc1cccc(N2CCN(c3nc(C)cc(=O)[nH]3)CC2)c1,14.4
17,CC(C)C1COC(c2cccc3ccccc23)=N1 (centres unmarked),-4.12
18,O=C(CSc1nncs1)NCCNC(=O)CSc1nncs1,17.6
19,COc1ccccc1NS(=O)(=O)c1cccc(C(=O)NCC(C)(C)N2CCOCC2)c1,4.67
20,C=CCC1(CC=C)CCCN1C(=O)CC1C(=O)NCCN1Cc1cc(OC)cc(OC)c1 (centres unmarked),10.5
21,O=C(COc1ccccc1Cl)NNC(=O)Cn1[nH]c(=O)c2ccccc2c1=O,5.12
22,Cc1cccc(NC(=O)c2ccc3nsnc3c2)c1C,20.7

row,Compound,"hERG current change (%, negative = inhibition) at 1uM [%]"
1,NC(=O)c1ccsc1NC(=O)COC(=O)COc1ccccc1[N+](=O)[O-],11.4
2,COc1cc(-c2cc(C(=O)Nc3ccncc3)c3ccccc3n2)cc(OC)c1OC,3.21
3,CCOC(=O)c1c(NC(=O)C2C3C=CC(C3)C2C(=O)O)sc2c1CCC(C)C2 (centres unmarked),9.85
4,Cc1[nH]nc2c1C(c1ccc(O)cc1)C1=C(CC(C)(C)CC1=O)N2 (centres unmarked),14.6
5,Nc1ncnc(Sc2ccc(Cl)cc2)c1[N+](=O)[O-],11.9
6,O=C(O)C1OC(Oc2c(-c3ccc(O)c(O)c3)oc3cc(O)cc(O)c3c2=O)C(O)C(O)C1O (centres unmarked),13.1
7,Cc1csc(SCC(=O)Nc2ncc(Cl)c(C)c2Cl)n1,8.8
8,CN(C)S(=O)(=O)c1ccc(NC(=O)C2CC3C=CC2C3)cc1 (centres unmarked),5.77
9,COc1cc(Br)cc2cc(C(=O)N3CCN(C(=O)c4ccco4)CC3)c(=O)oc12,-9.36
10,O=C(NCCc1ccccc1)C1CCCN(S(=O)(=O)c2cccc3nsnc23)C1 (centres unmarked),16.9
11,CC(=O)c1sc(NC(=O)c2cc3c(C)nn(-c4ccccc4)c3s2)nc1C,16.1
12,Cc1cc(C)n(C(=O)c2ccc(C)c(F)c2F)n1,13.2
13,COc1ccc2nc(Nc3nc4cc5c(cc4s3)OCCO5)sc2c1,6.33
14,COc1cc(NC(=O)CSc2nc3c(C)ccc(C)c3cc2C)c(C(=O)O)cc1OC,10.5
15,COc1ccc(Cc2nn3c(-c4ccccc4Br)nnc3s2)cc1,5.51
16,Cc1cc(O)c(/C=N/Nc2cccc(Cl)c2)c(=O)o1,6.27
17,O=C(CSc1nc2ccccc2c(=O)n1CC1CCCO1)NCC1CCCO1 (centres unmarked),-4.25
18,Cn1c(-c2ccccc2)cnc1NCc1cc2c(cc1[N+](=O)[O-])OCO2,-10.5
19,CC(C)CN(C(=O)CSc1nnc2ccccn12)c1c(N)n(CC(C)C)c(=O)[nH]c1=O,5.22
20,Nc1c2c(nc3ccccc13)CCN(Cc1ccccc1)C2,-23.5
21,COc1ccccc1N(CC(=O)NC(C)(C)C)S(=O)(=O)c1cccs1,8.12
22,O=C(Nc1ccc(S(=O)(=O)Nc2ccccc2)cc1)C1COc2ccccc2O1 (centres unmarked),7.69

row,Compound,"hERG current change (%, negative = inhibition) at 1uM [%]"
1,COc1ccccc1C(=O)NCCC(=O)N(C)CC(=O)Nc1ccccc1Br,4.68
2,CC(NC(=O)c1ccc(S(=O)(=O)Nc2ccccc2)cc1)c1ccc(S(N)(=O)=O)cc1 (centres unmarked),5.64
3,COC(=O)C1=C(c2cc3ccccc3o2)C[C@@H]2CC[C@H]1N2C(=O)N1CCCCC1,2.04
4,Cc1ccc(OCc2nnc(SCC(=O)Nc3cc(C)on3)n2C)cc1,11.7
5,O=C(CCC(=O)c1cccs1)NC1CCCCCC1,1.1
6,O=C1c2cccnc2C(Nc2ccc(F)c(Cl)c2)N1Cc1cccs1 (centres unmarked),3.51
7,O=S(=O)(c1cccc(-c2nnco2)c1)N1CCOCC1,12.1
8,CCOc1ccc2oc(C(=O)OCC(=O)NC3CCCC3)c(C)c2c1,11.9
9,CCOc1ccc(CCNC(=O)CSc2ncn[nH]2)cc1OCC,8.24
10,CCO[C@H]1OC(C(=O)O)=C[C@@H](c2ccccc2)[C@@H]1CCCO,-1.35
11,CCCc1nnc(NC(=O)c2ccc(S(=O)(=O)N(C)c3ccccc3OC)cc2)s1,5.64
12,COCCN(C(=O)Cc1coc2cc(C)c(C)cc12)c1c(N)n(Cc2ccccc2)c(=O)[nH]c1=O,6.85
13,O=S(=O)([O-])CCC[N+]1(CC#Cc2ccccc2)CCCCC1,20.2
14,CCC(C)NS(=O)(=O)c1ccc(NC(=O)c2ccc([N+](=O)[O-])cc2Cl)cc1 (centres unmarked),0.587
15,CC(C)C(C)(C#N)NC(=O)CSc1nc(C2CCCCC2)n(-c2ccccc2)n1 (centres unmarked),4.11
16,CC1CC(=O)N(c2ccc(NCCc3ccc(O)cc3)c([N+](=O)[O-])c2)C1=O (centres unmarked),9.4
17,Cc1cc(=O)oc2c(C)c(OCC(=O)N3CCN(Cc4ccccc4)CC3)ccc12,-0.265
18,CNS(=O)(=O)c1ccc(C)c(S(=O)(=O)NC)c1,13.2
19,N/C(=N\N=C\c1ccnc2ccccc12)SC1CC(=O)N(c2ccc(Br)cc2)C1=O (centres unmarked),10.4
20,COc1ccc(-c2nnc(SCC(=O)NCc3cccs3)n2C)cc1,7.61
21,c1ccc(-c2nnc(-c3ccncc3)nc2-c2ccccc2)cc1,10.4
22,CCc1nc(C)ccc1OC(=O)C12CC3CC(CC(C3)C1)C2.Cl,-5.23

row,Compound,"hERG current change (%, negative = inhibition) at 1uM [%]"
1,COc1ccc(C)cc1NC(=O)CSc1nnc2ccc(-c3cccnc3)nn12,-2.6
2,COc1ccc(NC(=O)Cn2nnc(C(=O)NCc3cccc(OC)c3)c2N)cc1,10.9
3,COc1ccc(-c2csc(NC(=O)c3ccccc3NS(=O)(=O)c3ccc(F)c(F)c3)n2)cc1,13.6
4,COC(=O)c1cccc(NC(=O)c2cc3sccc3n2C)c1,-7.6
5,Cc1ccc(/C(N)=N/OC(=O)c2cccc(Cn3cc(C(F)(F)F)ccc3=O)c2)cc1,11.6
6,COc1ccc(C)cc1S(=O)(=O)N(CC(=O)O)c1ccc(F)cc1,13.1
7,CCOC(=O)CNC(=O)/C(=C\c1ccc(F)cc1)NC(=O)c1ccccc1,-11.7
8,N#Cc1ccc(COC(=O)c2cnc3ccccc3n2)cc1,6.75
9,O=C(COC(=O)c1ncc(Cl)c(Cl)c1Cl)Nc1ccccc1OC(F)F,8.65
10,Cc1ccc(-c2ccc(=O)n(CCC(=O)NCCN3CCCCC3C)n2)cc1 (centres unmarked),-36.2
11,COc1ccc(/C=C/C(=O)OCC(=O)NC(=O)NC(C)(C)C)cc1,16.1
12,COc1ccc(-c2nc(S(=O)(=O)c3ccccc3)c(N3CCOCC3)o2)cc1,20.7
13,O=C(c1ccc(OC2CCN(Cc3cccc(F)c3)CC2)cc1)N1CCCCC1,-3.05
14,CCNC(=S)Nc1ccc(N2CCCCC2)cc1,10.7
15,O=C(COC(=O)COc1ccc2c(c1)CCC2)Nc1ccccc1,5.57
16,O=C(CCC(=O)N1CCCC(Nc2ccccc2)C1)c1ccc(F)cc1 (centres unmarked),9.44
17,COCC(=O)N1CCC(Oc2ccc(C(=O)NCCc3ccncc3)cc2)CC1,7.62
18,Cc1ccc(SCC(=O)OCC(=O)N(CC(C)C)c2c(N)n(Cc3ccccc3)c(=O)[nH]c2=O)c(C)c1,4.52
19,Oc1oc(-c2ccccc2)nc1/C=N/c1nccs1,8.14
20,O=C(COC(=O)c1ccc[nH]c1=O)Nc1ccc2c(c1)OC(F)(F)O2,9.4
